Data on 1 molecule can be found in the supplement of paper PMC8728848.

Common to all, as to assay: glycan array binding signal (z-score within array); higher = stronger binding
What all share (conditions): glycan notation: IUPAC condensed, linker removed; mutation: R82H, R255H

For assay [1], the target named is Gal(b1-4)GlcNAc(b1-6)Gal(b1-4)GlcNAc. The method in brief: (§1)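 From the Consortium for Functional Glycomics database, 3228 arrays were curated, keeping only those whose protein sequence was available. Binding is given as a within-array Z-score averaged across arrays sharing a protein sequence and across linkers. Negative Z-scores can be read as non-binding.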
Assay [2] concerns the target Gal(b1-4)GlcNAc(b1-6)GalNAc. The method in brief:
as §1

Assay [3] addresses Gal(b1-4)GlcNAc(b1-6)[Gal(b1-3)]GalNAc. The method in brief:
as §1

Assay [4] has as its target Gal(b1-4)GlcNAc(b1-6)[Gal(b1-4)GlcNAc(b1-3)]GalNAc. The gist of the method:
as §1

Another assay has as its target Gal(b1-4)GlcNAc6P. The method in brief: as §1
The next assay deals with Gal(b1-6)Gal. The method in brief: as §1
The next assay addresses Gal3S(b1-3)GalNAc. The method in brief:
as §1

A further assay has as its target Gal3S(b1-3)GlcNAc. The gist of the method:
as §1

Assay [5] has as its target Gal3S(b1-3)[Fuc(a1-4)]GlcNAc. The gist of the method:
as §1

For another assay, the target named is Gal3S(b1-4)Glc. The method in brief:
as §1

The next assay concerns the target Gal3S(b1-4)Glc6S. The method in brief: as §1
For the next assay, the target named is Gal3S(b1-4)GlcNAc. The gist of the method:
as §1

The target of assay [6] is Gal3S(b1-4)[Fuc(a1-3)]Glc6S. The gist of the method: as §1
The target of assay [7] is Gal3S(b1-4)[Fuc(a1-3)]GlcNAc. The method in brief:
as §1

Assay [8] has as its target Gal3S(b1-4)[Fuc(a1-3)]GlcNAc6S. The gist of the method: as §1
The target of another assay is Gal3S4S(b1-4)GlcNAc. The gist of the method: as §1
A further assay concerns the target Gal3S6S(b1-4)GlcNAc. The method in brief: as §1
A further assay addresses Gal3S6S(b1-4)GlcNAc6S. The gist of the method:
as §1

The target of the next assay is Gal4S(b1-4)GlcNAc. The method in brief:
as §1

The target of another assay is Gal4S6S(b1-4)GlcNAc. The method in brief: as §1
The next assay addresses Gal6P(b1-4)GlcNAc. The gist of the method:
as §1

The next assay addresses Gal6S(b1-3)GlcNAc. The gist of the method:
as §1

In the next assay the target is Gal6S(b1-3)GlcNAc6S. The gist of the method: as §1

This is one part of the list.

B1: Gal 8 (Mus musculus), Q9JL15 (protein)
chain: MGGSHHHHHHGMASMLSLNNLQNIIYNPIIPYVGTITEQLKPGSLIVIRGHVPKDSERFQVDFQLGNSLKPRADVAFHFNPHFKRSSCIVCNTLTQEKWGWEEITYDMPFRKEKSFEIVFMVLKNKFQVAVNGRHVLLYAHRISPEQIDTVGIYGKVNIHSIGFRFSSASALPHTLGDLQSMETSALGLTQINRENIQKPGKLQLSLPFEARLNASMGPGRTVVIKGEVNTNARSFNVDLVAGKTRDIALHLNPHLNVKAFVRNSFLQDAWGEEERNITCFPFSSGMYFEMIIYCDVREFKVAINGVHSLEYKHRFKDLSSIDTLSVDGDIRLLDVRSW
Regarding B1, the “glycan array binding signal (z-score)” value in assay [1] is -0.282; in assay [2], -0.208; in assay [3] it was -0.08; in assay [4], -0.226; in the assay with Gal(b1-4)GlcNAc6P it was -0.215; with Gal(b1-6)Gal it was -0.233. Also, the “glycan array binding signal (z-score)” value in the assay with Gal3S(b1-3)GalNAc is -0.251; with Gal3S(b1-3)GlcNAc, -0.133; in assay [5] it was 0.815; with Gal3S(b1-4)Glc it was -0.116; with Gal3S(b1-4)Glc6S, 0.008; with Gal3S(b1-4)GlcNAc, -0.22. Besides, the “glycan array binding signal (z-score)” value was -0.177 in assay [6]; -0.249 in assay [7]; -0.04 in assay [8]; -0.219 with Gal3S4S(b1-4)GlcNAc; 1.47 in the assay with Gal3S6S(b1-4)GlcNAc; -0.092 with Gal3S6S(b1-4)GlcNAc6S. For the same molecule, the “glycan array binding signal (z-score)” value was -0.22 with Gal4S(b1-4)GlcNAc; -0.205 with Gal4S6S(b1-4)GlcNAc; -0.285 in the assay with Gal6P(b1-4)GlcNAc; -0.276 in the assay with Gal6S(b1-3)GlcNAc; -0.186 in the assay with Gal6S(b1-3)GlcNAc6S.
